# Test results as given in PubChem BioAssay AID624170 (National Center for Advancing Translational Sciences (NCATS), 2012).
# The campaign covered roughly 410,000 compounds. About 850 (0.21%) were called active. This list was built around the results that the source calls inconclusive (neither active nor inactive); the mix of calls is not that of the screen. Calls come from the whole dose curve; as a rule, active = well fitted inhibition curve with a large enough effect; inconclusive = small, poorly fitted or top-dose-only effect, or another doubt; inactive = no such curve, though single readings can be large or run the other way. No potency is given beside an inconclusive call; the fits are too rough. The source holds several records for some structures; these can differ, active in one and inactive in another.
# Biological target: Glutaminase kidney isoform, mitochondrial (Homo sapiens) (UniProt O94925)
# UniProt O94925, sequence (O94925 whole entry, looked up, canonical isoform): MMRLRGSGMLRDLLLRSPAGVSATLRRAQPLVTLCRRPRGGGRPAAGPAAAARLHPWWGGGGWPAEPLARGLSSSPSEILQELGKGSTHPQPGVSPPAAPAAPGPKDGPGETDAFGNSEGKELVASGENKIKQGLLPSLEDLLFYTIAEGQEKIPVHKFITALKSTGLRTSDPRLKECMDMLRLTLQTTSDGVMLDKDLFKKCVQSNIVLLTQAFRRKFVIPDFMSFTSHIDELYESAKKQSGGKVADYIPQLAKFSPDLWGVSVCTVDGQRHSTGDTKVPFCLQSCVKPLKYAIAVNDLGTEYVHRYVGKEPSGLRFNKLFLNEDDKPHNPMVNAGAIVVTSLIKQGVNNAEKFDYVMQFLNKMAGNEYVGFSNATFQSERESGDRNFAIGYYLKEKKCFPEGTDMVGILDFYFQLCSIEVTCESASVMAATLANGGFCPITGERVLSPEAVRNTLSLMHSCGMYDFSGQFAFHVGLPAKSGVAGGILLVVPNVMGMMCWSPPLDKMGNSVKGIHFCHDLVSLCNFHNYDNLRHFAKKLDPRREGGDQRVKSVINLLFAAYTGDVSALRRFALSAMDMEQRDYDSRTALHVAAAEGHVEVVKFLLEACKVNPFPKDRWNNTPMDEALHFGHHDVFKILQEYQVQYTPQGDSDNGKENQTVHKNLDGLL
# Test: qHTS for Inhibitors of Glutaminase (GLS)
# Conditions: GLS enzymatic activity, qHTS titration; series mostly up to 45.5 µM
# How it was run: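 Two-point fluorescence kinetic (t0, 30 min RT) for hKGA; glutamate detected via glutamate oxidase–HRP–Amplex Red. Substrate: 1 mM L-glutamine solution; buffer 45 mM KH2PO4, pH 8.2.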
# Potency is the fitted concentration of half-maximal effect; tags give direction and shape of the fitted curve.
row,Structure (SMILES),Potency
1,CCOc1ccc(NC(=O)Cn2c(=O)n(CC3CCCO3)c(=O)c3ccccc32)cc1 (stereo not drawn),"inconclusive [inhibitor, single point]"
2,CCOc1ccc(N2C(=O)CC(/C=C3/N(C)c4ccccc4C3(C)C)C2=O)cc1 (stereo not drawn),"inconclusive [inhibitor, partial curve]"
3,Fc1ccc(CSc2nc3ccccc3[nH]2)cc1,"inconclusive [inhibitor, single point]"
4,N#CC(c1ccc(Cl)cc1)c1ccc(Cl)nn1 (stereo not drawn),"inconclusive [inhibitor, single point]"
5,O=C(O)c1cc(-c2ccco2)nc2ccc(Br)cc12,active: 7.94 µM
6,CNC(=S)NNC(=O)c1ccc(=O)n(Cc2cccc(C(F)(F)F)c2)c1,"inconclusive [inhibitor, single point]"
7,COc1ccc(O)c(/C=N/NC(=O)c2ccc(N3CCCC3=O)cc2)c1,"inconclusive [inhibitor, single point]"
8,COc1cc2c(-c3ccc(O)cc3)nc3c(c(C)nn3-c3ccccc3)c2cc1OC,"inconclusive [inhibitor, full curve]"
9,Cc1nc2c(cc1N)nc(C)n2Cc1ccccc1,"inconclusive [inhibitor, single point]"
10,Cc1ccc(C(=O)Nc2ccc(Nc3ccccc3)cc2)cc1Br,"inconclusive [inhibitor, partial curve]"
11,Cc1cc(SCC2=NNC(=O)C2)c(Cl)cc1Cl,"inconclusive [inhibitor, partial curve]"
12,CC(=O)Nc1ccc2c(COC(=O)CC3Sc4ccccc4NC3=O)cc(=O)oc2c1 (stereo not drawn),"inconclusive [inhibitor, single point]"
13,Cc1ccc2nc(CCc3nc4ccc(C)cc4o3)oc2c1,"inconclusive [inhibitor, single point]"
14,Cc1ccc(OCCn2c(=S)[nH]c3c(N)ncnc32)cc1,"inconclusive [inhibitor, single point]"
15,Nc1ccccc1Nc1cc(-c2ccccc2)[nH]n1,"inconclusive [inhibitor, single point]"
16,O=C(CSc1cccc2cccnc12)N1CCCC1,"inconclusive [inhibitor, single point]"
17,Cc1onc(-c2ccccc2Cl)c1C(=O)Nc1ccccc1O,"inconclusive [inhibitor, partial curve, poor fit]"
18,O=C(CCCc1ccccc1)Nc1ccc(Br)cc1F,"inconclusive [inhibitor, single point]"
